# The campaign covered roughly 280,000 compounds. About 100 (0.036%) were called active. The inconclusive results got no clear call from the source; some entries with a clear call stand among them for comparison. Calls follow the shape of the dose curve; as a rule, active = well fitted inhibition curve with a large enough effect in the signal ratio, with a control signal flat (not every such curve was filed as active); inconclusive = small, poorly fitted or top-dose-only effect, or effect the other way, or a change in a side signal; inactive = no such curve, though single readings can be large or run the other way; the % refers to the signal ratio. Potencies beside an inconclusive call are fits to weak or partial responses and may not hold up. A note “side channel” means that the fit belongs to a control or component signal, not to the main read-out.
# Biological target: Muscleblind-like protein 1 (Homo sapiens) (UniProt Q9NR56)
# Experiment: qHTS Assay for Inhibitors of MBNL1-poly(CUG) RNA binding
# Details: TR-FRET MBNL1-His/biotin-(CUG)12 binding, 665/545 ratio; activity change, negative = inhibition: at 57.5 µM (top of the series)
# Method in brief: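 Ratiometric TR-FRET (665 over 545 nm, excitation 340 nm) tracks disruption of MBNL1-His/biotin-(CUG)12 complex after 60 min at room temperature, with compounds at 92 nM to 58 uM final.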
# % is scaled to controls: 0 for no effect and ±100 for the full control effect; potency is read from the fitted curve at half-maximal effect; tags tell the direction and shape of the fitted curve or compound fluorescence and quenching.
# UniProt Q9NR56, sequence (Q9NR56 whole entry, looked up): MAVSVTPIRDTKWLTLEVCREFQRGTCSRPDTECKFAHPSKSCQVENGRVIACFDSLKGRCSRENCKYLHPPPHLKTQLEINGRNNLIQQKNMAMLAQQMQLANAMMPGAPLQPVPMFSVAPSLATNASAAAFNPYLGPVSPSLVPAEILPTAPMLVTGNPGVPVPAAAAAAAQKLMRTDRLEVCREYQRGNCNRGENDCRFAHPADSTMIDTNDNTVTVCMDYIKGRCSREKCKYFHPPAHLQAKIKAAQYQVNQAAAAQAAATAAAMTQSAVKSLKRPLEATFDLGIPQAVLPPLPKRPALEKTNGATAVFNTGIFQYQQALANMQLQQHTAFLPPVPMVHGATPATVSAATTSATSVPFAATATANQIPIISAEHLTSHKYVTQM
Structure (SMILES),Potency,"activity change, negative = inhibition"
Cc1ccc(N=Nc2cc(C)ccc2N)cc1,"inconclusive: 25.1 µM [quencher, side channel, single point]",
COP(=O)(OC)/C(C=O)=N/Nc1ccc([N+](=O)[O-])cc1,"inconclusive: 25.1 µM [quencher, side channel, partial curve]",
Cn1c2ccc(Br)cc2c2nnc(SCC(=O)O)nc21,"inconclusive: 17.8 µM [quencher, side channel, partial curve]",
COc1ccc([N+](=O)[O-])cc1CSc1ccccn1,"inconclusive: 35.5 µM [quencher, side channel, single point]",
O=C1OC(c2ccc(Cl)cc2)=N/C1=C\N1CC2CC(C1)c1cccc(=O)n1C2 (stereo not drawn),"inconclusive: 20 µM [quencher, side channel, partial curve]",
CCc1ccc2c(CN3CC=C(c4ccccc4)CC3)cc(=O)oc2c1,"inconclusive: 11.2 µM [quencher, side channel, partial curve]",
C[C@]12C=CC(=O)C=C1C=C[C@@H]1C2CC[C@]2(C)C(=O)CCC12 (stereo partly drawn),"inconclusive: 20 µM [quencher, side channel, single point]",
C[C@]12CCC(=O)C=C1CC[C@@H]1[C@@H]2C(=O)C[C@]2(C)C(=O)CC[C@@H]12,"inconclusive: 0.891 µM [inhibitor, full curve, poor fit]",
CCOc1ccccc1NC(=O)N1CCC2(CC1)OCCO2,"inconclusive: 1 µM [fluorescent, side channel, single point]",
CN(C)c1ccc(C=C(C#N)C#N)cc1,"inconclusive: 10 µM [quencher, side channel, partial curve]",
NCCNc1ccc([N+](=O)[O-])c2cccnc12,"inconclusive: 8.91 µM [quencher, side channel, partial curve]",
CNc1cc(N2CCN(C)CC2)ccc1[N+](=O)[O-],"inconclusive: 15.8 µM [quencher, side channel, partial curve]",
CCOP(=O)(OCC)C(NC(=O)c1cccc([N+](=O)[O-])c1)C(Cl)(Cl)Cl (stereo not drawn),"inconclusive: 20 µM [quencher, side channel, partial curve]",
CC(C)CCCn1c(O)c(/C=C2/C=CC=N2)c(=O)[nH]c1=O,"inconclusive: 28.2 µM [quencher, side channel, partial curve, poor fit]",
O=C1NC(=S)NC(=O)C1=Cc1cccc2cc3ccccc3cc12,"inconclusive: 7.94 µM [quencher, side channel, full curve]",
Cc1ccc(N2C(=O)NC(=O)/C(=C\C=C\c3ccco3)C2=O)cc1C,"inconclusive: 25.1 µM [quencher, side channel, partial curve]",
O=C(O)CC/C(=C\c1cc([N+](=O)[O-])ccc1Cl)c1nc2ccccc2s1,"inconclusive: 7.94 µM [quencher, full curve, poor fit]",
CCC1(CC)C(=O)NC(=Nc2cccc(C(F)(F)F)c2)NC1=O,"inconclusive: 158 µM [inhibitor, partial curve]",
Nc1c(C(=O)NCCCc2ccccc2)c2nc3ccccc3nc2n1Cc1cccs1,,inactive: -1.48%
Cc1nccn1-c1c([N+](=O)[O-])c(=O)n(C)c2ccccc12,"inconclusive: 39.8 µM [quencher, side channel, single point]",

Structure (SMILES),Potency,"activity change, negative = inhibition"
CCn1c(O)c(N=Nc2ccc(S(=O)(=O)N3CCOCC3)cc2)c(=O)n(CC)c1=S,"inconclusive: 15.8 µM [quencher, partial curve]",
O=c1c2ccccc2[nH]c(=S)n1-c1ccc(Br)cc1,"inconclusive: 28.2 µM [fluorescent, side channel, single point]",
O=C(O)CCCc1ccc(N(CCCl)CCCl)cc1,"inconclusive: 100 µM [inhibitor, single point]",
CN(C)C1(CNC(=O)Nc2ccc(Cl)c(Cl)c2)CCCCC1,,inactive: -7.54%
CCn1c(=O)n(CC)c2cc([N+](=O)[O-])c(N3CCNCC3)cc21,"inconclusive: 15.8 µM [quencher, side channel, partial curve]",
COc1ccccc1CN1CCCC(C(=O)c2ccccc2OC)C1 (stereo not drawn),,inactive: -1.07%
Cc1ccc(N=Nc2c(O)[nH]c(=O)[nH]c2=O)c([N+](=O)[O-])c1,"inconclusive: 12.6 µM [quencher, side channel, partial curve]",
Cc1cccc(OP(=O)(Oc2ccccc2)OC(c2ccccc2)C(F)(F)F)c1 (stereo not drawn),"inconclusive: 79.4 µM [inhibitor, partial curve, poor fit]",
COc1ccc(C(=O)N2CCCC2=O)cc1,"inconclusive: 79.4 µM [inhibitor, single point]",
COc1cc(CC2(CCc3ccncc3)C(=O)NC(=O)NC2=O)cc(OC)c1OC,"inconclusive: 12.6 µM [quencher, side channel, partial curve]",
C[N+]1(C)[C@@H]2CC[C@H]1CC(OC(=O)[C@@H](CO)c1ccccc1)C2 (stereo partly drawn),,inactive: 5%
Nc1cc(N2CCNCC2)c([N+](=O)[O-])cc1Cl,"inconclusive: 39.8 µM [quencher, single point]",
COc1ccc(CC[n+]2cc(/N=C(\C)[O-])on2)cc1OC,"inconclusive: 28.2 µM [quencher, side channel, single point]",
O=C1NC(=O)C(=Cc2ccc(N3CCN(C(=O)c4ccccc4)CC3)c([N+](=O)[O-])c2)C(=O)N1,"inconclusive: 15.8 µM [quencher, side channel, partial curve]",
COc1cc(Cn2c(N)c(C(=O)NCc3ccco3)c3nc4ccccc4nc32)cc(OC)c1OC,"inconclusive: 10 µM [quencher, side channel, partial curve]",
Cc1ccc(OCC(=O)N/N=C\c2ccc(O)c([N+](=O)[O-])c2)c([N+](=O)[O-])c1,"inconclusive: 25.1 µM [quencher, side channel, partial curve]",
O=C(Nc1ccc(F)c([N+](=O)[O-])c1)N1C[C@H]2C[C@@H](C1)c1cccc(=O)n1C2,"inconclusive: 31.6 µM [quencher, side channel, single point]",
O=[N+]([O-])c1ccc(N2CCNCC2)c(Cl)c1,"inconclusive: 10 µM [quencher, side channel, partial curve]",
CCNC(=O)O/N=C(\C)c1sc(-c2ccc(Cl)cc2)nc1C,"inconclusive: 25.1 µM [quencher, side channel, partial curve]",
O=c1[nH]c(=S)[nH]c(O)c1C(c1ccccn1)c1c(O)[nH]c(=S)[nH]c1=O,"inconclusive: 25.1 µM [quencher, side channel, single point]",

Structure (SMILES),Potency,"activity change, negative = inhibition"
Cn1c(=O)oc2cc(S(=O)(=O)Nc3cccc([N+](=O)[O-])c3)ccc21,"inconclusive: 14.1 µM [quencher, partial curve]",
COc1ccc(C2=NOC(COC(=O)c3ccc4ccccc4n3)C2)cc1 (stereo not drawn),"inconclusive: 15.8 µM [quencher, side channel, partial curve]",
CN1C(=O)N(C)C(=O)C2(Cc3cc([N+](=O)[O-])ccc3N3CCN(C(=O)c4ccccc4)CC32)C1=O (stereo not drawn),"inconclusive: 14.1 µM [quencher, partial curve]",
CCCCC(=O)N/N=C/c1c(O)n(CCc2ccc(OC)c(OC)c2)c(=O)[nH]c1=O,"inconclusive: 3.98 µM [quencher, side channel, full curve, poor fit]",
Cc1cc2c(s1)NC(=O)CN=C2c1cccs1,"inconclusive: 39.8 µM [quencher, side channel, single point]",
O=[N+]([O-])c1ccc(-c2ccc(C=Nc3cccc4ccccc34)o2)cc1,"inconclusive: 2.82 µM [quencher, side channel, full curve, poor fit]",
O=c1[nH]c(=S)[nH]c(O)c1CN1CCCCC1,,inactive: -5.45%
O=c1c2ccccc2nc(-c2ccc([N+](=O)[O-])cc2)n1-c1ccccc1,"inconclusive: 22.4 µM [activator, single point]",
Cn1nnc2cc(NC(=O)Nc3cccc(Cl)c3)ccc21,,inactive: 59.1%
O=[N+]([O-])c1ccc(CNCCc2ccccc2)cc1,"inconclusive: 28.2 µM [quencher, side channel, partial curve]",
CN1CCc2nc3ccc(F)cc3c(C(N)=O)c2C1,,inactive: -3.03%
O=C(N/N=C/c1cccc([N+](=O)[O-])c1)c1cnccn1,"inconclusive: 7.08 µM [quencher, side channel, partial curve]",
Oc1ccc(/C=N/NP(=S)(c2ccccc2)c2ccccc2)c(O)c1O,,inactive: 2%
C=CCNc1nnc(Sc2ncccc2[N+](=O)[O-])s1,"inconclusive: 3.98 µM [quencher, side channel, full curve]",
CCn1nc(/C=C/c2ccccc2)nc2c(=O)n(C)c(=O)nc1-2,,inactive: 6.16%
CCOc1cccc(=NC2CCCCC2)c2c(C)[nH]c(C)c12,"inconclusive: 25.1 µM [quencher, single point]",
COC(=O)c1nc(-c2ccc3c(n2)C(=O)C(N)=C(OC)C3=O)c(N)c(-c2ccc(OC)c(OC)c2O)c1C,"inconclusive: 12.6 µM [quencher, side channel, partial curve]",
O=C(C1CCCN1S(=O)(=O)c1cccc2nsnc12)N1CCN(c2ccccc2)CC1 (stereo not drawn),"inconclusive: 8.91 µM [quencher, side channel, partial curve]",

# From PubChem BioAssay AID2675 (National Center for Advancing Translational Sciences (NCATS), 2010)
